{
  "source": "PubChem BioAssay AID2100",
  "about": "(National Center for Advancing Translational Sciences (NCATS), 2009)",
  "note": "Among all 300,000 compounds or so, about 1,200 (0.4%) were called active. Inconclusive means that the source gave no clear call. Such entries were picked first, then a sample of the others. The call rests on the fitted dose curve; in most records, active means well fitted inhibition curve with a large enough effect; inconclusive means small, poorly fitted or top-dose-only effect, or another doubt; inactive means no such curve, though single readings can be large or run the other way. Potencies of inconclusive entries are doubtful fits and often do not repeat. Potency means the concentration at half of the fitted maximal effect.",
  "data": [
    {"target": "Lysosomal alpha-glucosidase (Homo sapiens) (UniProt P10253)", "assay": "qHTS Assay for Inhibitors and Activators of Human alpha-Glucosidase Cleavage of Glycogen;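 on activity change, negative = inhibition: 0% = full enzyme reaction and -100% = no-enzyme basal signal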", "conditions": "recombinant GAA, glycogen substrate, Amplex Red glucose oxidase fluorescence; activity change, negative = inhibition: at 76.4 µM (top of the series) unless noted", "method_in_brief": "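Recombinant enzyme (4 nM final) with compounds titrated up to 77 uM and bovine liver glycogen (30 ug) in citrate pH 5.0, 0.01% Tween-20, 37 C 40 min. Released glucose detected by Amplex Red/glucose oxidase (Ex 573/Em 610); AC50 from Hill fits.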", "values": [
      {"compound": "CNC[C@H](O)c1ccc(O)c(O)c1", "Potency": "inconclusive: 39.5 µM [inhibitor, single point]"},
      {"compound": "COc1ccc(-c2csc(Nc3ncccc3C)n2)cc1", "Potency": "inconclusive: 10 µM [inhibitor, full curve]"},
      {"compound": "O=C(O)CCc1ccc(-c2cccs2)n1CCc1ccccc1", "Potency": "inconclusive: 35.5 µM [activator, single point]"},
      {"compound": "O=C(NNc1cccc(Cl)n1)c1ccccc1CC[N+](=O)[O-]", "Potency": "inconclusive: 11.2 µM [inhibitor, partial curve]"},
      {"compound": "COCCNC(=O)c1c(N)n(-c2cccc(C)c2)c2nc3ccccc3nc12", "activity change, negative = inhibition": "inactive: -13.5%"},
      {"compound": "COC(=O)c1c(C)sc(-c2c(-c3cccc(Cl)c3)[nH]c3c2c(=O)[nH]c(=O)n3C)c1O", "Potency": "inconclusive: 17.8 µM [inhibitor, partial curve]"},
      {"compound": "COc1ccccc1NC(=S)NCc1ccc2c(c1)cc(C)n2C", "Potency": "inconclusive: 2.8 µM [inhibitor, partial curve, poor fit]"},
      {"compound": "Cc1sc(N/N=C/c2cccs2)nc1-c1ccccc1", "Potency": "inconclusive: 25.1 µM [inhibitor, partial curve]"},
      {"compound": "CC(C)c1ccc(Nc2c(-c3ccccc3O)nc3cnccn23)cc1", "Potency": "inconclusive: 11.2 µM [inhibitor, full curve, poor fit]"},
      {"compound": "c1ccc(CCNCCOc2ccccc2)cc1", "Potency": "inconclusive: 3.55 µM [inhibitor, partial curve]"},
      {"compound": "Cc1cccc2c1NC(=O)/C2=C\\C(=O)c1cccs1", "Potency": "inconclusive: 11.2 µM [inhibitor, single point]"},
      {"compound": "C/C(=N\\Nc1nc2ccccc2[nH]1)c1ccc(C)o1", "Potency": "inconclusive: 44.7 µM [inhibitor, partial curve]"},
      {"compound": "Oc1ccccc1N=Cc1c(O)ccc2oc3c(c12)CCCC3", "Potency": "active: 5.62 µM"},
      {"compound": "CCOc1ccc(OCc2cccc(C(=O)O)c2)cc1", "activity change, negative = inhibition": "inactive: -14.7%"},
      {"compound": "CN(C)NC(=S)Nc1cccc(C(F)(F)F)c1", "Potency": "inconclusive: 50.1 µM [inhibitor, single point]"},
      {"compound": "CCOC(=O)N1CCN(C(=O)c2ccc(OCC)cc2)CC1", "Potency": "inconclusive: 31.6 µM [activator, single point]"},
      {"compound": "COc1ccccc1/C=C1/C(=O)N(c2ccccc2)N=C1C", "Potency": "inconclusive: 20 µM [inhibitor, partial curve]"},
      {"compound": "COCCn1nc2cc(C(=O)NCc3cc(C(F)(F)F)cc(C(F)(F)F)c3)ccc2c1OC", "Potency": "inconclusive: 4.97 µM [inhibitor, full curve]"},
      {"compound": "CC(C)(C)NC(=O)C1CCN(S(=O)(=O)c2cccc3nsnc23)CC1", "activity change, negative = inhibition": "inactive: -6.76% [at 76.3 µM]"},
      {"compound": "CCOc1cc(/C=C2/C(=O)ON=C2C)ccc1OCc1ccccc1", "activity change, negative = inhibition": "inactive: 18.7%"},
      {"compound": "COc1ccccc1NC(=S)NCCc1ccc(S(N)(=O)=O)cc1", "Potency": "inconclusive: 35.2 µM [inhibitor, partial curve]"},
      {"compound": "O=C(c1ccccc1F)N1CCN(S(=O)(=O)c2ccc3c(c2)OCCO3)CC1", "activity change, negative = inhibition": "inactive: -5.41%"},
      {"compound": "COc1cc(-c2nc3ccc(C)cn3c2Nc2ccc(Cl)cc2)ccc1O", "Potency": "inconclusive: 28.2 µM [inhibitor, single point]"},
      {"compound": "CCN(CC)S(=O)(=O)c1ccc(N2CCOCC2)c(NC(=O)c2cc(-c3ccccn3)nc3ccccc23)c1", "activity change, negative = inhibition": "inactive: 16.3%"},
      {"compound": "CS(=O)(=O)N1CCc2cc(C(=O)NCc3ccccc3)ccc21", "activity change, negative = inhibition": "inactive: 5.24% [at 76.3 µM]"},
      {"compound": "COc1ccccc1N1C(=O)CC(N(O)c2ccccc2)C1=O", "note": "(stereo unspecified)", "Potency": "inconclusive: 5.62 µM [inhibitor, full curve]"},
      {"compound": "Fc1ccc(/C=N/Nc2nc(-c3cccnc3)nc3ccccc23)cc1", "Potency": "inconclusive: 28.2 µM [inhibitor, partial curve]"},
      {"compound": "Cc1ccc(C(=O)NC2(C(F)(F)F)C(=O)Nc3c2c(=O)[nH]c(=O)n3CCc2ccccc2)cc1", "note": "(stereo unspecified)", "activity change, negative = inhibition": "inactive: 12.6% [at 76.3 µM]"},
      {"compound": "Cc1cccc(OCC(=O)Nc2cc(C)ccc2O)c1", "Potency": "inconclusive: 3.14 µM [inhibitor, full curve]"},
      {"compound": "Cc1c(OC(C)C(=O)NC(Cc2c[nH]c3ccc(O)cc23)C(=O)O)ccc2c1oc(=O)c1ccccc12", "note": "(stereo unspecified)", "Potency": "inconclusive: 5.01 µM [inhibitor, full curve]"},
      {"compound": "O=C1C(Cc2ccccc2)NC(=S)N1Cc1ccccc1", "note": "(stereo unspecified)", "Potency": "inconclusive: 31.4 µM [inhibitor, partial curve]"},
      {"compound": "O=C(CCc1ccc(O)cc1)c1c(O)cc(O)cc1O", "Potency": "active: 31.4 µM"},
      {"compound": "COc1ccc(N(CC(=O)NCc2ccc(C)cc2)S(=O)(=O)c2c(C)[nH]c(=O)[nH]c2=O)cc1", "activity change, negative = inhibition": "inactive: -3.28% [at 76.3 µM]"},
      {"compound": "Cc1ccc(/C=N/Nc2nc3ccccc3s2)o1", "Potency": "inconclusive: 24.9 µM [inhibitor, single point]"},
      {"compound": "Cc1ccc(NCC(=O)N/N=C\\c2ccc([N+](=O)[O-])o2)cc1", "Potency": "inconclusive: 12.5 µM [inhibitor, partial curve]"},
      {"compound": "CCOC(=O)CNc1c(-c2ccccc2)nc2ccc(Cl)cn12", "Potency": "active: 4.47 µM"},
      {"compound": "CCOC(=O)c1c(CSc2ccsc2)n(C)c2cc(Br)c(O)c(CN(C)C)c12", "Potency": "inconclusive: 20 µM [inhibitor, partial curve]"},
      {"compound": "COc1ccc(Cn2nnc3c(C)n[nH]c(=O)c32)cc1", "activity change, negative = inhibition": "inactive: -3.45%"},
      {"compound": "COCCCNC(=S)N/N=C/c1ccc(O)cc1O", "Potency": "inconclusive: 5.62 µM [inhibitor, partial curve]"},
      {"compound": "COc1ccc(/C=N/Nc2ccccc2)cc1Cn1nc(C)c([N+](=O)[O-])c1C", "Potency": "inconclusive: 28.2 µM [inhibitor, partial curve]"},
      {"compound": "COc1ccc(OC)c(/C=N/NC(=O)CCc2ccc(O)c(O)c2)c1", "Potency": "inconclusive: 3.52 µM [inhibitor, full curve]"},
      {"compound": "CCOC(=O)N1CCN(S(=O)(=O)c2cc(-c3nn4c(C)nnc4c4ccccc34)ccc2C)CC1", "activity change, negative = inhibition": "inconclusive: 26.5% [activator]"},
      {"compound": "CCCN1C(=O)/C(=C/c2ccc(N3CCCC3)c(C)c2)NC1=S", "Potency": "inconclusive: 3.55 µM [inhibitor, full curve]"},
      {"compound": "CCOC(=O)CSc1nc(=O)n2ccccc2n1", "Potency": "inconclusive: 11.2 µM [inhibitor, single point]"},
      {"compound": "O=C(O)c1ccccc1C(=O)NNc1ccc(Cl)cc1Cl", "Potency": "active: 15.8 µM"},
      {"compound": "Nc1ccc(Nc2ccccc2)cc1", "activity change, negative = inhibition": "inactive: -24.5%"},
      {"compound": "CCN1CCN(C(=O)C(C)Nc2ccc(OC)cc2OC)CC1", "note": "(stereo unspecified)", "Potency": "inconclusive: 39.5 µM [inhibitor, single point]"},
      {"compound": "N#C/C(=C/c1ccc(N2CCOCC2)o1)c1ccc(Br)cc1", "activity change, negative = inhibition": "inactive: -29.7%"},
      {"compound": "Cc1ccc(C)c(NC(=O)C2CCCN(S(=O)(=O)c3ccc4[nH]c(=O)ccc4c3)C2)c1", "note": "(stereo unspecified)", "Potency": "active: 31.6 µM"},
      {"compound": "Cc1[nH]c2ccccc2c1/C=N/Nc1nncn1N", "Potency": "inconclusive: 14.1 µM [inhibitor, partial curve]"},
      {"compound": "Cn1c(-c2ccc(F)cc2)cnc1NCc1cccc(F)c1", "Potency": "inconclusive: 20 µM [inhibitor, partial curve]"},
      {"compound": "COc1ccc2[nH]c(C(=O)O)c(NS(=O)(=O)c3ccc(C)c(C)c3)c2c1", "Potency": "inconclusive: 11.2 µM [inhibitor, single point]"},
      {"compound": "CCOc1ccc2c(c1)C(C)=CC(C)(C)N2C(=O)Nc1ccccc1", "Potency": "inconclusive: 28 µM [inhibitor, single point]"},
      {"compound": "Cc1cccc(C)c1Nc1c(-c2ccc(Cl)s2)nc2ncccn12", "Potency": "inconclusive: 28.2 µM [inhibitor, single point]"},
      {"compound": "COCCN1C(=O)CC(NNC(=O)c2ccc(S(=O)(=O)N3CCCC3)cc2)C1=O", "note": "(stereo unspecified)", "Potency": "inconclusive: 28.2 µM [inhibitor, partial curve]"},
      {"compound": "Cc1cccc(/C=N/n2c(-c3ccccc3)n[nH]c2=S)c1O", "Potency": "inconclusive: 39.8 µM [inhibitor, partial curve]"},
      {"compound": "Cn1c(CSCc2ccc(Cl)cc2Cl)n[nH]c1=S", "Potency": "inconclusive: 35.5 µM [inhibitor, single point]"},
      {"compound": "COc1ccc(NC(=O)[C@@H](c2ccccc2)N2Cc3ccccc3C2=O)cc1OC", "activity change, negative = inhibition": "inactive: 11% [at 76.3 µM]"},
      {"compound": "CCOC(=O)N1CCN(C(=O)CN(c2cccc(Cl)c2C)S(=O)(=O)c2ccc(C)cc2)CC1", "activity change, negative = inhibition": "inactive: -7.91% [at 76.3 µM]"},
      {"compound": "Cc1cccc(C(=O)NNC2=C(C(=O)C(F)(F)F)CCC2)c1O", "Potency": "inconclusive: 44.7 µM [inhibitor, single point]"},
      {"compound": "Cc1cc(=O)[nH]c(SCc2cn3ccccc3n2)n1", "activity change, negative = inhibition": "inactive: 4.54%"},
      {"compound": "COc1cc(C2NC(=S)NC(C)=C2C(=O)Nc2ccc(C)cc2)ccc1O", "note": "(stereo unspecified)", "Potency": "inconclusive: 35.2 µM [inhibitor, single point]"},
      {"compound": "O=C(CSc1nc2c(c(=O)[nH]1)CCC2)Nc1ccccc1F", "Potency": "inconclusive: 8.91 µM [inhibitor, partial curve]"},
      {"compound": "CCN(CC)C(=O)C(C(=O)c1cccc([N+](=O)[O-])c1)n1cc(Cl)ccc1=O", "note": "(stereo unspecified)", "activity change, negative = inhibition": "inactive: -2.55%"},
      {"compound": "C/C(CCCO)=N/Nc1ccc([N+](=O)[O-])cc1[N+](=O)[O-]", "Potency": "inconclusive: 39.5 µM [inhibitor, single point]"},
      {"compound": "COc1ccc(/C=N/Nc2nccnc2Cl)c(OC)c1", "Potency": "inconclusive: 28 µM [inhibitor, single point]"},
      {"compound": "CCCS(=O)(=O)Nc1c(C(=O)O)[nH]c2ccc(OC)cc12", "Potency": "inconclusive: 6.31 µM [inhibitor, full curve]"},
      {"compound": "O=C(Nc1ccc(Cl)cc1)N1CCc2ccccc2C1", "Potency": "inconclusive: 31.6 µM [inhibitor, single point]"},
      {"compound": "COc1ccc(C(=O)/C=C/Nc2c(C)n(C)n(-c3ccccc3)c2=O)c(OC)c1", "Potency": "inconclusive: 7.94 µM [inhibitor, full curve]"},
      {"compound": "Oc1ccccc1Oc1ncc(Br)c(Cl)n1", "Potency": "inconclusive: 28.2 µM [inhibitor, single point]"},
      {"compound": "Cc1cccc(NC(=S)NNC(=O)c2ccco2)c1", "Potency": "inconclusive: 12.5 µM [inhibitor, partial curve]"}
    ]}
  ]
}
